According to patent publication US20190169308A1 (ALLIGATOR BIOSCIENCE, published 2019):

T1: 5T4-Fc (human, UniProt Q13641 32-355, limits assumed)
T1 construct: obtained from Peter L. Stern, University of Manchester; also called h5T4-Fc; recombinant 5T4
T1 sequence (looked up): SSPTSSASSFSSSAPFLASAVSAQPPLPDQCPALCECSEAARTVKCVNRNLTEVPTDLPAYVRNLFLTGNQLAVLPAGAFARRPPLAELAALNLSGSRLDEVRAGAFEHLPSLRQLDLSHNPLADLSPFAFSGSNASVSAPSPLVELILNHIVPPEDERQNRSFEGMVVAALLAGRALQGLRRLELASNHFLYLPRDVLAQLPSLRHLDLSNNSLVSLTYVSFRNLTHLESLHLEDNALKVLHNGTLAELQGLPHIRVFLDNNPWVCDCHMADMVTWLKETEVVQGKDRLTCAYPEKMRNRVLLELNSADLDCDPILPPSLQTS


What follows are binders tested against T1, 5T4-Fc (assay: dual ELISA: coated 5T4-Fc, detection with CD137-bio).
Experimental: (§1) Bispecific binding to both targets, CD137 and 5T4, was evaluated using a standard ELISA protocol. Plates (#655074, Greiner Bio-One GmbH, Germany) were pre-coated with 0.5 μg/ml 5T4-Fc (obtained from Professor Peter Stern, University of Manchester) overnight. CD137-5T4 bsAb were diluted from 8 to 2×10⁻³ μg/ml in 1:4 dilutions and added in duplicates of 50 μl to each well. CD137-bio (Ancell #502-030) was used as detection antibody at 0.5 μg/ml and the binding was detected with Streptavidin-HRP (Pierce #21126). The ELISA was developed with SuperSignal ELISA PICO Chemiluminescent substrate (Thermo Scientific Pierce, Rockford, Ill. USA) during 2-10 minutes and read in an automated microplate based multi-detection reader (FLUOstar OPTIMA, Netherlands).

Row | EC50 [nM] | Binder
1 | 0.61 | 1202-1206 (bispecific antibody, Morrison format IgG-scFv) heavy: EVQLLESGGGLVQPGGSLRLSCAASGFTFYGSSMSWVRQAPGKGLEWVSSIYYGSSGTYYADSVKGRFTISRDNSKNTLYLQMNSLRAEDTAVYYCARSYYGYFDYWGQGTLVTVSS[no letters for human IgG1 constant region]GGGGSGGGGSEVQLLESGGGLVQPGGSLRLSCAASGFTFSGSSMSWVRQAPGKGLEWVSSIYYSGSGTYYADSVKGRFTISRDNSKNTLYLQMNSLRAEDTAVYYCARYGRNVHPYNLDYWGQGTLVTVSSGGGGSGGGGSGGGGSDIQMTQSPSSLSASVGDRVTITCRASQSISSYLNWYQQKPGKAPKLLIYAASSLQSGVPSRFSGSGSGTDFTLTISSLQPEDFATYYCQQGYYYLPTFGQGTKLEIK light: DIQMTQSPSSLSASVGDRVTITCRASQSISSYLNWYQQKPGKAPKLLIYAASSLQSGVPSRFSGSGSGTDFTLTISSLQPEDFATYYCQQYYTVVPFTFGQGTKLEIKRTVAAPSVFIFPPSDEQLKSGTASVVCLLNNFYPREAKVQWKVDNALQSGNSQESVTEQDSKDSTYSLSSTLTLSKADYEKHKVYACEVTHQGLSSPVTKSFNRGEC

These binders were tested against T2, CD137-bio (Ancell #502-030) (human, UniProt Q07011 24-186, biotinylated) in the same assay as above.
T2 construct: detection reagent of the dual ELISA
T2 sequence (Q07011 24-186 limits assumed): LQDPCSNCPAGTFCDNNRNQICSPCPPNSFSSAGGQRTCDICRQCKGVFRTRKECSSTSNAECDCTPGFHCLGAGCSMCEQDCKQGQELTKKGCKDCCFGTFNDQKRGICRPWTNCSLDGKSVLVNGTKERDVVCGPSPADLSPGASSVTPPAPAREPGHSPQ
Experimental: as §1

Row | Binder | binding result
2 | 1210-1618.m2.m7.m18 (bispecific antibody, human IgG1, kappa, scFv in VL-VH order) heavy: [no letters for about 100 residues]YYGGYYSAWMDYWGQGTLVTVSS[no letters for human IgG1 constant region with changes]EAAKEAAKDIQMTQSPSSLSASVGDRVTITCRASQSISSYLNWYQQKPGKAPKLLIYAASSLQSGVPSRFSGSGSGTDFTLTISSLQPEDFATYYCQQYYDNLPTFGQGTKLEIKGGGGSGGGGSGGGGSEVQLLESGGGLVQPGGSLRLSCAASGFTFSYGSMYWVRQAPGKGLEWVSSISSGSGSTYYADSVKGRFTISRDNSKNTLYLQMNSLRAEDTAVYYCARSSYYGSYYSIDYWGQGTLVTVSS light: DIQMTQSPSSLSASVGDRVTITCRASQSISSYLNWYQQKPGKAPKLLIYAASSLQSGVPSRFSGSGSGTDFTLTISSLQPEDFATYYCQQTYGYLHTFGQGTKLEIKRTVAAPSVFIFPPSDEQLKSGTASVVCLLNNFYPREAKVQWKVDNALQSGNSQESVTEQDSKDSTYSLSSTLTLSKADYEKHKVYACEVTHQGLSSPVTKSFNRGEC | binds
3 | 1618-1210.m2.m16 (bispecific antibody, human IgG1, kappa) heavy: EVQLLESGGGLVQPGGSLRLSCAASGFTFSYGSMYWVRQAPGKGLEWVSSISSGSGSTYYADSVKGRFTISRDNSKNTLYLQMNSLRAEDTAVYYCARSSYYGSYYSIDYWGQGTLVTVSS[no letters for about 450 residues with a human IgG1 Fc]YYGGYYSAWMDYWGQGTLVTVSSGGGGSGGGGSGGGGSDIQMTQSPSSLSASVGDRVTITCRASQSISSYLNWYQQKPGKAPKLLIYAASSLQSGVPSRFSGSGSGTDFTLTISSLQPEDFATYYCQQTYGYLHTFGQGTKLEIK light: DIQMTQSPSSLSASVGDRVTITCRASQSISSYLNWYQQKPGKAPKLLIYAASSLQSGVPSRFSGSGSGTDFTLTISSLQPEDFATYYCQQYYDNLPTFGQGTKLEIKRTVAAPSVFIFPPSDEQLKSGTASVVCLLNNFYPREAKVQWKVDNALQSGNSQESVTEQDSKDSTYSLSSTLTLSKADYEKHKVYACEVTHQGLSSPVTKSFNRGEC | binds
4 | 1618-1210.m2.m7.m15 (bispecific antibody, human IgG1, kappa, scFv in VL-VH order) heavy: EVQLLESGGGLVQPGGSLRLSCAASGFTFSYGSMYWVRQAPGKGLEWVSSISSGSGSTYYADSVKGRFTISRDNSKNTLYLQMNSLRAEDTAVYYCARSSYYGSYYSIDYWGQGTLVTVSS[no letters for human IgG1 constant region with changes]THTCPPCPEPKSSDKDIQMTQSPSSLSASVGDRVTITCRASQSISSYLNWYQQKPGKAPKLLIYAASSLQSGVPSRFSGSGSGTDFTLTISSLQPEDFATYYCQQTYGYLHTFGQGTKLEIKGGGGSGGGGSGGGGS[no letters for about 100 residues]YYGGYYSAWMDYWGQGTLVTVSS light: DIQMTQSPSSLSASVGDRVTITCRASQSISSYLNWYQQKPGKAPKLLIYAASSLQSGVPSRFSGSGSGTDFTLTISSLQPEDFATYYCQQYYDNLPTFGQGTKLEIKRTVAAPSVFIFPPSDEQLKSGTASVVCLLNNFYPREAKVQWKVDNALQSGNSQESVTEQDSKDSTYSLSSTLTLSKADYEKHKVYACEVTHQGLSSPVTKSFNRGEC | binds
5 | 1618-1210.m2.m15 (bispecific antibody, human IgG1, kappa) heavy: EVQLLESGGGLVQPGGSLRLSCAASGFTFSYGSMYWVRQAPGKGLEWVSSISSGSGSTYYADSVKGRFTISRDNSKNTLYLQMNSLRAEDTAVYYCARSSYYGSYYSIDYWGQGTLVTVSS[no letters for human IgG1 constant region with changes]THTCPPCPEPKSSDK[no letters for about 100 residues]YYGGYYSAWMDYWGQGTLVTVSSGGGGSGGGGSGGGGSDIQMTQSPSSLSASVGDRVTITCRASQSISSYLNWYQQKPGKAPKLLIYAASSLQSGVPSRFSGSGSGTDFTLTISSLQPEDFATYYCQQTYGYLHTFGQGTKLEIK light: DIQMTQSPSSLSASVGDRVTITCRASQSISSYLNWYQQKPGKAPKLLIYAASSLQSGVPSRFSGSGSGTDFTLTISSLQPEDFATYYCQQYYDNLPTFGQGTKLEIKRTVAAPSVFIFPPSDEQLKSGTASVVCLLNNFYPREAKVQWKVDNALQSGNSQESVTEQDSKDSTYSLSSTLTLSKADYEKHKVYACEVTHQGLSSPVTKSFNRGEC | binds

Results, then the binder that gave them:

Row | binding result | Binder
6 | binds | 1618-1210.m2.m7.m18 (bispecific antibody, human IgG1, kappa, scFv in VL-VH order) heavy: EVQLLESGGGLVQPGGSLRLSCAASGFTFSYGSMYWVRQAPGKGLEWVSSISSGSGSTYYADSVKGRFTISRDNSKNTLYLQMNSLRAEDTAVYYCARSSYYGSYYSIDYWGQGTLVTVSS[no letters for human IgG1 constant region with changes]EAAKEAAKDIQMTQSPSSLSASVGDRVTITCRASQSISSYLNWYQQKPGKAPKLLIYAASSLQSGVPSRFSGSGSGTDFTLTISSLQPEDFATYYCQQTYGYLHTFGQGTKLEIKGGGGSGGGGSGGGGS[no letters for about 100 residues]YYGGYYSAWMDYWGQGTLVTVSS light: DIQMTQSPSSLSASVGDRVTITCRASQSISSYLNWYQQKPGKAPKLLIYAASSLQSGVPSRFSGSGSGTDFTLTISSLQPEDFATYYCQQYYDNLPTFGQGTKLEIKRTVAAPSVFIFPPSDEQLKSGTASVVCLLNNFYPREAKVQWKVDNALQSGNSQESVTEQDSKDSTYSLSSTLTLSKADYEKHKVYACEVTHQGLSSPVTKSFNRGEC
7 | binds | 1618-1210.m2.m7.m17 (bispecific antibody, human IgG1, kappa, scFv in VL-VH order) heavy: EVQLLESGGGLVQPGGSLRLSCAASGFTFSYGSMYWVRQAPGKGLEWVSSISSGSGSTYYADSVKGRFTISRDNSKNTLYLQMNSLRAEDTAVYYCARSSYYGSYYSIDYWGQGTLVTVSS[no letters for human IgG1 constant region with changes]EAAKEAAKGGGGSDIQMTQSPSSLSASVGDRVTITCRASQSISSYLNWYQQKPGKAPKLLIYAASSLQSGVPSRFSGSGSGTDFTLTISSLQPEDFATYYCQQTYGYLHTFGQGTKLEIKGGGGSGGGGSGGGGS[no letters for about 100 residues]YYGGYYSAWMDYWGQGTLVTVSS light: DIQMTQSPSSLSASVGDRVTITCRASQSISSYLNWYQQKPGKAPKLLIYAASSLQSGVPSRFSGSGSGTDFTLTISSLQPEDFATYYCQQYYDNLPTFGQGTKLEIKRTVAAPSVFIFPPSDEQLKSGTASVVCLLNNFYPREAKVQWKVDNALQSGNSQESVTEQDSKDSTYSLSSTLTLSKADYEKHKVYACEVTHQGLSSPVTKSFNRGEC
8 | binds | 1618-1210.m2.m17 (bispecific antibody, human IgG1, kappa) heavy: EVQLLESGGGLVQPGGSLRLSCAASGFTFSYGSMYWVRQAPGKGLEWVSSISSGSGSTYYADSVKGRFTISRDNSKNTLYLQMNSLRAEDTAVYYCARSSYYGSYYSIDYWGQGTLVTVSS[no letters for human IgG1 constant region with changes]EAAKEAAKGGGGS[no letters for about 100 residues]YYGGYYSAWMDYWGQGTLVTVSSGGGGSGGGGSGGGGSDIQMTQSPSSLSASVGDRVTITCRASQSISSYLNWYQQKPGKAPKLLIYAASSLQSGVPSRFSGSGSGTDFTLTISSLQPEDFATYYCQQTYGYLHTFGQGTKLEIK light: DIQMTQSPSSLSASVGDRVTITCRASQSISSYLNWYQQKPGKAPKLLIYAASSLQSGVPSRFSGSGSGTDFTLTISSLQPEDFATYYCQQYYDNLPTFGQGTKLEIKRTVAAPSVFIFPPSDEQLKSGTASVVCLLNNFYPREAKVQWKVDNALQSGNSQESVTEQDSKDSTYSLSSTLTLSKADYEKHKVYACEVTHQGLSSPVTKSFNRGEC
9 | binds | 1618-1210.m2.m7.m16 (bispecific antibody, human IgG1, kappa, scFv in VL-VH order) heavy: EVQLLESGGGLVQPGGSLRLSCAASGFTFSYGSMYWVRQAPGKGLEWVSSISSGSGSTYYADSVKGRFTISRDNSKNTLYLQMNSLRAEDTAVYYCARSSYYGSYYSIDYWGQGTLVTVSS[no letters for human IgG1 constant region with changes]GGGGSDIQMTQSPSSLSASVGDRVTITCRASQSISSYLNWYQQKPGKAPKLLIYAASSLQSGVPSRFSGSGSGTDFTLTISSLQPEDFATYYCQQTYGYLHTFGQGTKLEIKGGGGSGGGGSGGGGS[no letters for about 100 residues]YYGGYYSAWMDYWGQGTLVTVSS light: DIQMTQSPSSLSASVGDRVTITCRASQSISSYLNWYQQKPGKAPKLLIYAASSLQSGVPSRFSGSGSGTDFTLTISSLQPEDFATYYCQQYYDNLPTFGQGTKLEIKRTVAAPSVFIFPPSDEQLKSGTASVVCLLNNFYPREAKVQWKVDNALQSGNSQESVTEQDSKDSTYSLSSTLTLSKADYEKHKVYACEVTHQGLSSPVTKSFNRGEC
